Values of other authors, collected in patent publication US8623416B2 (priority 2009, dated 2014).

System: HIV
Details: cited from earlier work

CC[C@H]1C(=O)Nc2ccc(F)cc2N1C(=O)OC(C)C [GW420867X]
greater activity than HBY097: 25 fold
